Data reported in PubChem BioAssay AID624172 (National Center for Advancing Translational Sciences (NCATS), 2012).
The campaign covered roughly 380,000 compounds. About 25 (0.007%) were called active. The shares of active, inactive and inconclusive entries below differ from those in the screen. The call rests on the fitted dose curve; in most records, active means well fitted activation curve with a large enough effect; inconclusive means small, poorly fitted or top-dose-only effect; inactive means no such curve, though single readings can be large or run the other way. No potency is given beside an inconclusive call; the fits are too rough.

Each compound was assayed against Glucagon-like peptide 1 receptor (Homo sapiens) (UniProt P43220) (assay: qHTS of GLP-1 Receptor Agonists). Conditions: HEK293 GLP-1R CRE-luciferase, luminescence, 4-6 h, cells express a hypersensitive GLP-1R form; activation: at 45.6 µM (top of the series) unless noted.
From the text: The overall goal of this project was to develop a novel assay for discovering small molecule ligands for class B1 G protein-coupled receptors (GPCRs). Very few agonists (or inverse agonists) with generally weak activity for this entire group of physiologically important receptors are known to date. To establish proof-of-principle that this critical bottleneck can be overcome with a suitable screening approach, our studies focused on the class B1 receptor for glucagon-like peptide-1 (GLP-1R), a potential therapeutic target for diabetes and neurodegenerative disease.
The assay was developed in a "mix and measure" format using a cell-based functional readout. Toward this goal, stably transfected HEK293 cell clones were established that co-express (i) a cAMP-responsive luciferase reporter gene, and (ii) GLP-1Rs that upon ligand interaction either stimulate (agonists) or inhibit (inverse agonists) luciferase activity. In different cell lines to be used for screening, expressed GLP-1Rs are specifically optimized for high sensitivity detection of either weak agonists (hypersensitive receptor) or inverse agonists (constitutively active receptor mutant). In addition, control cell lines were developed that express either the cAMP-responsive reporter gene without recombinant GLP-1Rs (enabling initial exclusion of GLP-1R independent effects of candidate probes), or the reporter gene together with wild type GLP-1Rs (for confirmation of probe activity at this receptor), or the reporter gene in combination with the constitutively active orphan receptor GPR119 (enabling initial exclusion of GLP-1R independent inhibitory effects of candidate inverse agonists).
To that end, this assay was optimized for 1536-well format and screened against the MLSMR.
NIH Molecular Libraries Probe Production Network [MLPCN]
NIH Chemical Genomics Center [NCGC]
PI Name: Martin Beinborn, Tufts Medical Center
In a white solid 1536-well plate, 6 uL of cells are dispensed in DMEM without phenol red, 10% Nu serum, and 1% pen-strep medium. The plates are then incubated for 12 hours at 37 deg C at 5% CO2 before 23 nL of compounds are added. After a 4-6 hr incubation at37 deg C and 5% CO2, 3 uL of detection reagent are added and after a 12 min incubation at RT, a luminescent read is obtained on the ViewLux.
Potency means the concentration at half of the fitted maximal effect; tags describe the fitted curve by direction and shape.
Wherever activation is given: % of control where 0% means no effect.

UniProt P43220, sequence (P43220 whole entry, looked up): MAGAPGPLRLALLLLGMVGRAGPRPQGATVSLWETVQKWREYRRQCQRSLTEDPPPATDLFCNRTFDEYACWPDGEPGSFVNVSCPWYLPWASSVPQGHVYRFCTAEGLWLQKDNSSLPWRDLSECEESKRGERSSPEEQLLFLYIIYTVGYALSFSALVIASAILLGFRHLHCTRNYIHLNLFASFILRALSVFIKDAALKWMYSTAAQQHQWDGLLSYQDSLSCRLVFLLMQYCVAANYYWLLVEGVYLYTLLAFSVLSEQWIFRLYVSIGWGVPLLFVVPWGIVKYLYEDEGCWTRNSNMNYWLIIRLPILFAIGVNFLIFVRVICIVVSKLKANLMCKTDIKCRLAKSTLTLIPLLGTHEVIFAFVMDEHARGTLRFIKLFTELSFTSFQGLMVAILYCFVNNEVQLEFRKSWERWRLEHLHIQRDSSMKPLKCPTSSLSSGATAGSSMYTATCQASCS

| SMILES | Potency | activation |
| --- | --- | --- |
| CCCNc1nc(C)nc2c1cnn2CCc1ccccc1 | inconclusive [activator, single point] | – |
| O=c1c(Br)ccc(Br)cc1Br | inactive | – |
| CN1CCc2nc(SCC(=O)Nc3ccc(Cl)cc3)c(C#N)cc2C1 | inactive | – |
| CCOC(=O)c1c(C)nc2sc(C(=O)Nc3ccccc3)c(N)c2c1-c1ccc(OC)cc1 | inconclusive [activator, single point] | – |
| CCOC(=O)c1c(C)[nH]c(C(=O)OCc2ccccc2)c1C | inconclusive [activator, partial curve, poor fit] | – |
| C=CCn1c(SCC(=O)c2ccc(CNC(C)=O)o2)nc2scc(C3CC3)c2c1=O | inconclusive [activator, partial curve] | – |
| COc1ccc(OC)c(Nc2nc(N)c([N+](=O)[O-])c(N3CCOCC3)n2)c1 | inconclusive [activator, single point] | – |
| N#CCCNS(=O)(=O)c1ccc(C(=O)OCC2CCCCC2)cc1 | inconclusive [activator, single point] | – |
| COc1cc(N/C(N)=N/c2nc(C)cc(C)n2)cc(OC)c1 | inactive | – |
| OC(COC(c1ccccc1)c1ccccc1)CN1CCc2ccccc2C1 (centres undefined) | – | inconclusive: 44.3% [activator] |
| CSC(=N/N=C(\N)c1cnccn1)SC | inactive | – |
| COCCN(C(=O)CSc1nc2ccccc2o1)c1c(N)n(Cc2ccccc2)c(=O)[nH]c1=O | inactive | – |
| CCC(C)Sc1nc2c(c(=O)n1C)SC(C)C2 (centres undefined) | inconclusive [activator, partial curve, poor fit] | – |
| COc1cc2c(cc1OC)C1=CC(=O)C(=O)N1C(C)(C)C2 | inconclusive [activator, partial curve, poor fit] | – |
| COc1ccc(C(=O)Nc2ccccc2N2CCN(C(=O)C(C)C)CC2)cc1Cl | inconclusive [activator, partial curve, poor fit] | – |
| CN(C)/C=C/c1oc2ccc(O)cc2c1[N+](=O)[O-] | inactive | – |
| CC(C)(C)Nc1nc(-c2ccc3c(c2)CCN3C(=O)C2CC2)cs1 | inconclusive [activator, partial curve, poor fit] | – |
| Cc1cc(Cl)c2oc(C(=O)N(C)Cc3nccn3C)c(C)c2c1 | inconclusive [activator, partial curve, poor fit] | – |
| COc1ccc(S(=O)(=O)Oc2ccccc2C(N)=O)cc1 | inactive | – |
| CCOC(=O)C1CCN(C2=NC(=O)/C(=C/c3ccc(OC)c(OC)c3)S2)CC1 | inconclusive [activator, partial curve] | – |
| O=C(O)CCc1ccc(-c2cccs2)o1 | inactive | – |
| O=c1[nH]n(CC2COC3(CCCCC3)O2)c(=O)c2ccccc12 (centres undefined) | inconclusive [activator, single point] | – |

| SMILES | Potency | activation |
| --- | --- | --- |
| CCOc1ccc(CC(=O)Nc2ccc(-c3ccc4nnc(C)n4n3)cc2)cc1 | inconclusive [activator, partial curve, poor fit] | – |
| Cc1ccc(S(=O)(=O)N2CCN(c3ncnc4scc(-c5ccc(F)cc5)c34)CC2)cc1 | inactive | – |
| N#Cc1nc(-c2ccccc2Cl)oc1N1CCCCC1 | inconclusive [activator, partial curve, poor fit] | – |
| C=CCSc1nnc(CCCCCN2C(=O)c3cccc4cccc(c34)C2=O)o1 | inconclusive [activator, partial curve, poor fit] | – |
| CCCSc1nc2c(c(=O)[nH]c(=O)n2C)n1CCc1ccccc1 | inconclusive [activator, full curve, poor fit] | – |
| CCC(C)[C@H](NC(=O)[C@H](Cc1ccccc1)n1c(=O)[nH]c2ccccc2c1=O)C(=O)NCC1CCC(C(=O)O)CC1 (some centres undefined) | inconclusive [activator, partial curve, poor fit] | – |
| CN(Cc1ccccc1N1CCCC1)C(=O)c1cc2cc(Cl)ccc2o1 | inactive | – |
| COC(=O)C1=C(C)NC(C)=C(C(=O)OC)C1c1ccc(N(C)C)cc1 | inconclusive [activator, single point] | – |
| CCOC(=O)N1CCN(S(=O)(=O)c2cc([N+](=O)[O-])ccc2C)CC1 | inactive | – |
| COc1cccc2c1C(=O)c1c(O)c3c(c(O)c1C2=O)C[C@@](O)(C(=O)CO)C[C@@H]3O[C@H]1C[C@H](N)[C@H](O)[C@H](C)O1 | inactive | – |
| COCCN(C(=O)COC(=O)COc1ccc2c(c1)CCC2)c1c(N)n(Cc2ccccc2)c(=O)[nH]c1=O | inactive | – |
| O=C(c1cccc(-c2nnc(-c3ccccc3)o2)c1)N1CCCCC1 | inconclusive [activator, partial curve, poor fit] | – |
| CCN(CC)c1cc(C)c2cc(NC(=O)/C=C/c3ccccc3Cl)ccc2n1 | inactive | – |
| CC/C(C)=N/NC(=S)NCc1ccco1 | inactive | – |
| COc1ccccc1/C=N/NC(=O)CC(=O)NCc1cccnc1 | inconclusive [activator, full curve, poor fit] | – |
| Cc1nn(-c2ccc(C(=O)O)cc2)c(N)c1-c1ccccc1 | inactive | – |
| Cc1nnc2ccc(-c3ccc(NS(=O)(=O)c4ccccc4F)cc3)nn12 | inconclusive [activator, single point] | – |
| Cc1nn(Cc2ccccc2Cl)c(C)c1NC(=O)c1nc2ncccn2n1 | inconclusive [activator, single point] | – |
| CCC(C(=O)N1CCc2cc(OC)c(OC)cc2C1)c1ccccc1 (centres undefined) | inconclusive [activator, partial curve, poor fit] | – |
| COc1ccc(C2=Nn3c(nnc3-c3ccccc3F)SC2)cc1OC1CCOC1 (centres undefined) | inconclusive [activator, partial curve, poor fit] | – |
| CN(C)CCNC(=O)c1cccc(-c2cnc3c(NC=O)cc(-c4ccc(F)cc4)cn23)c1 | inconclusive [activator, partial curve, poor fit] | – |
| O=C(N/N=C/c1ccc2c(c1)OCO2)c1cccs1 | inactive | – |
